According to the BET-seq Pho4 binding data (Le et al. 2018):
The other results are listed elsewhere or left out. Values were computed here from the reads of four pooled replicates and scatter widely.

What follows are sequences tested against T1, Pho4 (S. cerevisiae) (UniProt P07270) (assay: relative binding free energy (BET-seq); higher = weaker binding). Conditions: reference: library average.
T1 sequence: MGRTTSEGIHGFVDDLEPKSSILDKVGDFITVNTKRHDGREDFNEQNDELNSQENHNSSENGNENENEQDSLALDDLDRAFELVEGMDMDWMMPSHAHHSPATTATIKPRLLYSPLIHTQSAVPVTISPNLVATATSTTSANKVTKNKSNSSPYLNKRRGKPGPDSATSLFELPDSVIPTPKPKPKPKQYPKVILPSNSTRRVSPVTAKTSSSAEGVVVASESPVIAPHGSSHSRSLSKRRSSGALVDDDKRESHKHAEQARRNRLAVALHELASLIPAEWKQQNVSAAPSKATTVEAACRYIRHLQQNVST

| Sequence | relative binding free energy [kcal/mol] |
| --- | --- |
| CTTATCACGTGGTGGA | 0.05 |
| TTAAACACGTGTAGTA | 0.01 |
| GAGGTCACGTGTTGGC | 0.21 |
| AGAGGCACGTGTGTGG | -0.15 |
| ATCGGCACGTGTCGTT | -0.01 |
| GGTGTCACGTGTCTTT | 0.16 |
| TACGACACGTGTGTTT | 0.07 |
| TGAAGCACGTGTGTCG | -0.08 |
| GAGTACACGTGTTTAT | 0.18 |
| GTTACCACGTGGGTGT | -0.32 |
| TACTTCACGTGAATGT | 0.4 |
| GCATTCACGTGATTGA | 0.43 |
| GTTGGCACGTGATGAC | 0.17 |
| GGGTTCACGTGGAATC | 0.49 |
| GAGTTCACGTGAGAAT | 0.51 |
| GTTTGCACGTGATTCG | 0.06 |
| GACGGCACGTGGGTAG | -0.2 |
| TCGTACACGTGGCGGG | 0.1 |
| GTGGGCACGTGGATTA | -0.04 |
| GTGTACACGTGAGGAT | 0.29 |
| GAGATCACGTGGTTGG | 0.3 |
| TATTGCACGTGTAGTC | 0.07 |
| TTCTGCACGTGTAGCG | 0.03 |

| Sequence | relative binding free energy [kcal/mol] |
| --- | --- |
| AACGGCACGTGAGGCG | 0.18 |
| AATTTCACGTGTTTGG | 0.18 |
| GTTTTCACGTGGGCAT | 0.2 |
| TTGGGCACGTGGGGGG | -0.15 |
| ATTTCCACGTGTTAGA | 0.19 |
| TGTAACACGTGCGTAT | 0.04 |
| TAAGTCACGTGAAATT | 0.2 |
| AAGCTCACGTGGTGTA | 0.19 |
| GGTCGCACGTGAGGTA | 0.19 |
| GTGTGCACGTGGAATT | 0.11 |
| TTGGGCACGTGTAGAT | 0.22 |
| GGGGCCACGTGTTTGC | 0 |
| GACGTCACGTGTGGAG | 0.04 |
| GTGAGCACGTGATTCT | 0.13 |
| TGAGCCACGTGGTGTA | -0.04 |
| TGTTGCACGTGAGGTT | 0.14 |
| TCTTTCACGTGAGTGC | 0.43 |
| AGTTTCACGTGTAGAG | 0.24 |
| GGCATCACGTGAGAGG | 0.32 |
| TGAATCACGTGATATT | 0.28 |
| GTCGCCACGTGGGGTA | -0.04 |
| TAGATCACGTGTTTGC | 0.1 |
| AGTTTCACGTGTCGGA | 0.18 |

| Sequence | relative binding free energy [kcal/mol] |
| --- | --- |
| GGGGTCACGTGGTATC | 0.1 |
| TGATTCACGTGGTAGA | 0.26 |
| GGGTACACGTGGGTAC | -0.14 |
| TTACGCACGTGGGTTT | -0.19 |
| GGGAACACGTGTTTTA | 0.07 |
| TGCTACACGTGATGGT | 0.33 |
| CCGGGCACGTGGGGTA | -0.27 |
| TTATACACGTGGCGGT | 0 |
| ATGATCACGTGGCGCG | 0.14 |
| GGAGGCACGTGAAGGC | 0.05 |
| GGAAACACGTGAGTGA | 0.36 |
| GTTGGCACGTGCAGAG | -0.1 |
| TGATTCACGTGAGTGC | 0.29 |
| ATTGACACGTGTTTAT | -0.04 |
| TTTTTCACGTGAGGTC | 0.31 |
| TGCGGCACGTGGCATG | -0.26 |
| GTGCGCACGTGAGGTG | 0.19 |
| AGTTTCACGTGAGAAA | 0.48 |
| TTTTGCACGTGCAAAG | -0.08 |
| TCTTTCACGTGTAAAA | 0.55 |
| CTGGCCACGTGTTGGA | 0.05 |
| TTTCGCACGTGTTGGA | 0.09 |
| AGTAACACGTGCGGGA | 0.16 |

| Sequence | relative binding free energy [kcal/mol] |
| --- | --- |
| TACGGCACGTGTTGTA | -0.07 |
| TGTATCACGTGTAGTA | 0.1 |
| TGAGACACGTGGGTAA | -0.1 |
| AAAGGCACGTGTCAGG | -0.1 |
| TCTATCACGTGTTGGT | 0.25 |
| TTATTCACGTGTATTA | 0.19 |
| TGGGGCACGTGGGTAC | -0.22 |
| GATGGCACGTGAGGCG | 0.08 |
| GGGCTCACGTGTTGCT | 0.39 |
| GGGGCCACGTGGGGAA | -0.23 |
| CGAGGCACGTGTGTTA | -0.11 |
| AAGTGCACGTGAAGCG | 0.3 |
| ATAGTCACGTGGGCGG | -0.14 |
| ATGTGCACGTGACGTA | -0.02 |
| ATATACACGTGTGGTG | 0.04 |
| AGTAACACGTGGTTGA | -0.06 |
| GATATCACGTGGGGGA | 0.04 |
| TATTGCACGTGAGTAG | 0.2 |
| TATGACACGTGAATAG | 0.27 |
| GGGTGCACGTGCGCTA | -0.09 |
| TGTTGCACGTGGTTTT | 0.04 |
| ATGTGCACGTGGGGCC | -0.29 |
| TGCGTCACGTGGTAGA | -0.05 |

| Sequence | relative binding free energy [kcal/mol] |
| --- | --- |
| TTTGTCACGTGAGAAG | 0.19 |
| TTTTTCACGTGAGAGT | 0.53 |
| ATAATCACGTGGGCTG | -0.05 |
| GTTAGCACGTGTTGTA | -0.07 |
| AGCAACACGTGGTTGG | -0.04 |
| CGAGTCACGTGCTGGG | 0.11 |
| GGGTGCACGTGGAGAG | 0.03 |
| AGAAACACGTGTGTTG | -0.13 |
| TTTGACACGTGTGCGG | 0 |
| CGGTTCACGTGCTGTG | 0 |
| GGGTACACGTGTTGTA | 0.08 |
| GATGGCACGTGTGCGA | -0.1 |
| GGGTTCACGTGATTTC | 0.48 |
| TTGGACACGTGCGTTT | 0.11 |
| TTTTACACGTGATCAT | 0.03 |
| AGATGCACGTGTAGAG | 0.04 |
| GGAGGCACGTGCGCGT | -0.19 |
| AGCGTCACGTGCGGGC | 0.07 |
| AATTTCACGTGTATAT | 0.13 |
| GTTGACACGTGAGATT | 0.19 |
| GGTGGCACGTGTATGT | 0.05 |
| GGGTGCACGTGGATTA | 0.04 |
| TTTTACACGTGTTATT | 0.08 |
